Measured values: PMC4336329 (PLoS ONE, 2015)
Among all 310,000 compounds or so, about 2,200 (0.71%) showed an effect of 50% or more. The effect is printed as a negative number. The list shows a part of the results.

Target: human ether-à-go-go-related gene (hERG) potassium channel (human, UniProt Q12809)
Assay: primary screen, population patch clamp on CHO cells stably expressing hERG

Chain of human ether-à-go-go-related gene (hERG) potassium channel (Q12809 whole entry, looked up): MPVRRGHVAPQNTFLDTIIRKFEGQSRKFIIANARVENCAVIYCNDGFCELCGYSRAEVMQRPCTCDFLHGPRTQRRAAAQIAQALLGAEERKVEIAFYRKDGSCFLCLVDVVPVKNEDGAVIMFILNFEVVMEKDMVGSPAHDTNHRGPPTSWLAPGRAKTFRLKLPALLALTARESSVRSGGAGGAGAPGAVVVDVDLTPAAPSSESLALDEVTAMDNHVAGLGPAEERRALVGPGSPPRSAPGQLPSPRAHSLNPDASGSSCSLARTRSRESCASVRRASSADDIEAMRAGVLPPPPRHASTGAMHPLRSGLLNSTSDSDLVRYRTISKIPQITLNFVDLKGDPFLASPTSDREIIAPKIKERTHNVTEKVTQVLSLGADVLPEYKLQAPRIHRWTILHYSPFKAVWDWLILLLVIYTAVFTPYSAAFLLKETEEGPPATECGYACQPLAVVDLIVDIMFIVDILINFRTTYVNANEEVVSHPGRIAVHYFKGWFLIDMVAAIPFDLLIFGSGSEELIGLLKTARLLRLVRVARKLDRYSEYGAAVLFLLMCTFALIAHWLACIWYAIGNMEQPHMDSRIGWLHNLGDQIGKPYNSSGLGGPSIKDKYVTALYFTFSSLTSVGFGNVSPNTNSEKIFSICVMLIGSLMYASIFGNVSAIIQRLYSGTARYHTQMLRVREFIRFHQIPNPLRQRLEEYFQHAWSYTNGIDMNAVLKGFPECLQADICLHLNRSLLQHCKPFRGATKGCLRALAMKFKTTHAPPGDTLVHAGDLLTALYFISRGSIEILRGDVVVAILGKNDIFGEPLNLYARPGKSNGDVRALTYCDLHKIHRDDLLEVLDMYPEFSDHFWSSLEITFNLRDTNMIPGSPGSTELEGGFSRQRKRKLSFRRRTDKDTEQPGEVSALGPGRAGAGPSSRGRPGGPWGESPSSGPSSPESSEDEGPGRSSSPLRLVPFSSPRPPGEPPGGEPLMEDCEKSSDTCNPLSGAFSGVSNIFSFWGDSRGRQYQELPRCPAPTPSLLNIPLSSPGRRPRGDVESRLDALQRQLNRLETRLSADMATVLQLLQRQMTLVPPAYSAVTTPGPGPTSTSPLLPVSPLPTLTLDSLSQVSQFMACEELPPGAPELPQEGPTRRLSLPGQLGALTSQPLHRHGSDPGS

Compared with `CCC(C)(C)NC(=O)CN(CCc1cccc(C)c1)C(=O)c1csnn1`, `Cc1cccc(CSc2ncccc2C(=O)O)c1` is lower in “hERG current change (%, negative = inhibition) at 1uM” value: 6.27% for the first, 5.61% for the second.

Compared with `CCCCN(CCNP(=O)(OCC)OCC)CP(=O)(OCC)OCC`, `CCOC(CCc1c(C)nc(NC(C)=O)[nH]c1=O)OCC` is higher in “hERG current change (%, negative = inhibition) at 1uM” value: -3.14% for the first, 14.1% for the second.

Going from `COC(=O)C(CCSC)NC(=O)CNC(=O)C1CCCCC1` (centres unmarked) to `C/C(CC(=O)Nc1ccc([N+](=O)[O-])cc1)=N/NC(=O)C1C2CCCCC21` (centres unmarked), the “hERG current change (%, negative = inhibition) at 1uM” value falls from 10.7% to -6.25%.

Compared with `CN(C(=O)c1ccccc1C(=O)OCC(=O)c1ccc(Br)cc1)c1ccccc1`, `NC(=O)COC(=O)c1ccc(C(=O)C(=O)c2ccccc2)cc1` is lower in “hERG current change (%, negative = inhibition) at 1uM” value: 14.4% for the first, 12.9% for the second.

First: CC(=O)N1CCC(=O)N(C(C)C)c2ccccc21
Second: Cc1nn(C)c(=O)n1-c1ccccc1
The “hERG current change (%, negative = inhibition) at 1uM” value of the first is lower: 5.72% for the first, 6.02% for the second.

First: O=C(Nc1nc(N2C(=O)c3ccccc3C2=O)n(-c2ccccc2)n1)c1ccccc1
Second: O=C(NS(=O)(=O)c1ccccc1)c1ccccc1
The “hERG current change (%, negative = inhibition) at 1uM” value of the first is lower: 2.24% for the first, 8.4% for the second.

First: COC(c1ccccc1)c1nnc(CCC(=O)N(C)C(C2CC2)C2CC2)o1 (centres unmarked)
Second: Cc1ccc(-c2noc(CCC(=O)NC3CCCc4ccccc43)n2)cc1 (centres unmarked)
The “hERG current change (%, negative = inhibition) at 1uM” value of the first is lower: 0.91% for the first, 12.6% for the second.

Compared with `O=C1CN(O)C(c2ccccc2)=c2cc(Cl)ccc2=N1`, `Cc1sc(NC(=O)c2ccccc2)c(C#N)c1-c1ccccc1` is higher in “hERG current change (%, negative = inhibition) at 1uM” value: 3.47% for the first, 12.6% for the second.

First: Cc1ccc(NC(=S)N(CCN(C)C)C(C)c2cccnc2)cc1 (centres unmarked)
Second: Cc1ccc(NC(=O)NCc2cccnc2)cc1
The “hERG current change (%, negative = inhibition) at 1uM” value of the first is higher: -3.9% for the first, -15% for the second.

Compared with `O=C(C1CCN(S(=O)(=O)N2CCC3(CC2)OCCO3)CC1)N1CCc2ccccc2C1`, `O=C(Nc1ccnn1C1CCN(CC2CC=CCC2)CC1)c1ccccc1Cl` (centres unmarked) is lower in “hERG current change (%, negative = inhibition) at 1uM” value: 11.6% for the first, -37.8% for the second.

Compared with `CCCCN=C[C@]12CCC(O)CC1(O)CCC1[C@@H]2CC[C@]2(C)[C@H](C3C=CC(=O)O3)CCC12O` (some centres unmarked), `COC(=O)CCN(C(=O)C1C2CC3CC(C2)CC1C3)c1ccccn1` (centres unmarked) is lower in “hERG current change (%, negative = inhibition) at 1uM” value: 19.8% for the first, 11.6% for the second.

Going from `COC(=O)c1ccccc1Oc1ccc(NC(=O)c2ccco2)cc1` to `Cc1ccc(NC(=S)Nc2nc(CC(=O)Nc3ccccc3)cs2)cc1`, the “hERG current change (%, negative = inhibition) at 1uM” value rises from 2.67% to 7.34%.

Compared with `CCNS(=O)(=O)c1ccc(NC(=O)c2ccc(Cn3cc(Br)cn3)o2)cc1`, `Cc1ccc(S(=O)(=O)NNC(=O)c2cnn(-c3ccccc3)c2C(F)(F)F)cc1` is lower in “hERG current change (%, negative = inhibition) at 1uM” value: 14.6% for the first, 8.86% for the second.

First: COc1ccc2oc(C(=O)N(C)Cc3ccc4c(c3)OCCO4)c(C)c2c1
Second: O=C(CCCCCN1C(=O)c2ccccc2C1=O)Nc1ccc2c(c1)OCCO2
The “hERG current change (%, negative = inhibition) at 1uM” value of the first is higher: 9.19% for the first, 4.28% for the second.

First: COc1ccc(CCNC(=O)c2ccc(C)s2)cc1OC
Second: COc1ccc(NC(=S)NCc2cccs2)cc1OC
The “hERG current change (%, negative = inhibition) at 1uM” value of the first is lower: 12.3% for the first, 23.3% for the second.

Compared with `Cc1cc2ccccc2c(=O)n1CC(=O)NCC(=O)N(C)Cc1ccccc1`, `COc1ccccc1CNC(=O)c1cc(C)nc2ccccc12` is lower in “hERG current change (%, negative = inhibition) at 1uM” value: 17.1% for the first, 12.2% for the second.

First: COc1cccc(C2CC(=O)NC3=C2C(=O)CCC3)c1 (centres unmarked)
Second: COc1cc2c(cc1OC)C(c1c(Cl)cccc1Cl)NC(=O)C2 (centres unmarked)
The “hERG current change (%, negative = inhibition) at 1uM” value of the first is lower: 14.1% for the first, 17.7% for the second.

Compared with `COc1cccc(OCCOCCNCCO)c1`, `CCOC(=O)N/N=C\c1cccc(OC)c1` is higher in “hERG current change (%, negative = inhibition) at 1uM” value: 9.06% for the first, 21.9% for the second.

First: COc1ccccc1NC(=O)Cn1cnc2c(oc3nc4c(cc32)CCCC4)c1=O
Second: COc1ccccc1NC(=O)c1ccc2[nH]c(C)c(C)c2c1
The “hERG current change (%, negative = inhibition) at 1uM” value of the first is higher: 6.48% for the first, -1.5% for the second.

First: COc1ccc(C2=NN(C(=O)CSc3nnc(C)n3C)C(c3ccco3)C2)cc1 (centres unmarked)
Second: Cc1nnc(NC(=O)CSc2nnc(-c3ccc(S(=O)(=O)N4CCCC4)cc3)n2C)s1
The “hERG current change (%, negative = inhibition) at 1uM” value of the first is higher: 16.9% for the first, 0.762% for the second.

Compared with `O=C(NNC(=O)c1cccs1)c1ccccc1`, `Nc1ccccc1NC(=O)c1ccccc1` is higher in “hERG current change (%, negative = inhibition) at 1uM” value: 5.51% for the first, 15.5% for the second.

Compared with `CC(C(=O)Nc1ccccn1)N1C(=O)c2ccccc2S1(=O)=O` (centres unmarked), `O=C(Nc1ccccc1Sc1ccccc1)c1ccc(F)cc1` is higher in “hERG current change (%, negative = inhibition) at 1uM” value: 6.56% for the first, 14.9% for the second.

First: CN(CC(=O)NNC(=O)CCNS(=O)(=O)c1ccccc1)S(=O)(=O)c1ccc(Cl)cc1
Second: O=C(CCCN1C(=O)/C(=C/c2ccccc2Cl)SC1=S)NNC(=O)c1ccncc1
The “hERG current change (%, negative = inhibition) at 1uM” value of the first is lower: -2.66% for the first, 13.8% for the second.

First: Cn1c(Cn2nnc(-c3ccccc3)n2)nnc1SCc1ccccc1Cl
Second: c1ccc(OCCOc2ccccc2-c2nnco2)cc1
The “hERG current change (%, negative = inhibition) at 1uM” value of the first is higher: 5.26% for the first, 4.97% for the second.

First: CCC(=NCCc1c[nH]c2ccccc12)c1c(O)n(C)c(=O)n(C)c1=O
Second: Cc1nc(SCC(=O)OCc2ccccc2)c2c(=O)n(C)c(=O)n(C)c2n1
The “hERG current change (%, negative = inhibition) at 1uM” value of the first is lower: 14% for the first, 17% for the second.

Compared with `O=C(COC(=O)CCCCCN=C1NS(=O)(=O)c2ccccc21)Nc1ccc(Cl)c(Cl)c1`, `O=C(c1csc2ccccc12)N1CCN(c2ccc(Cl)c(Cl)c2)CC1` is lower in “hERG current change (%, negative = inhibition) at 1uM” value: 12.1% for the first, 9.02% for the second.

Going from `CSc1ccccc1NC(=S)Nc1cccc(C(F)(F)F)c1` to `CCO[C@H]1OC(C(=O)NCc2nc3ccccc3[nH]2)=C[C@@H](c2ccc(C(F)(F)F)cc2)[C@@H]1CCCO`, the “hERG current change (%, negative = inhibition) at 1uM” value falls from 12.6% to 3.73%.

Going from `Cc1nc2ccccc2cc1OCc1ccc(F)cc1` to `Cc1ccc(OCCOCCn2cnc3ccccc3c2=O)cc1C`, the “hERG current change (%, negative = inhibition) at 1uM” value falls from 11.2% to -5.16%.

Compared with `CC1(C)CC(=O)c2cc(C(=O)O)c(=O)n(-c3ccccc3)c2C1`, `Cc1cc(C(=O)OCC(=O)N2CCOCC2)c2ccccc2n1` is higher in “hERG current change (%, negative = inhibition) at 1uM” value: 11.8% for the first, 16% for the second.

First: OCC1(CCc2ccccc2)CCCN(C/C=C/c2ccccc2)C1 (centres unmarked)
Second: Nc1c(N(CCC2=CCCCC2)C(=O)CCCOc2ccccc2)c(=O)[nH]c(=O)n1Cc1ccccc1
The “hERG current change (%, negative = inhibition) at 1uM” value of the first is lower: -53.6% for the first, -12.6% for the second.

Going from `Cc1ccc(-n2ncc3c(=O)[nH]cnc32)c(C)c1` to `C#CCN1C(=O)C(O)(c2c(C)[nH]c3ccccc23)c2ccccc21` (centres unmarked), the “hERG current change (%, negative = inhibition) at 1uM” value rises from 4.6% to 16.1%.

Going from `O=C(CCCCCn1c(=S)[nH]c2cc3c(cc2c1=O)OCO3)N1CCN(Cc2ccccc2)CC1` to `CC1CCCN(C(=O)CCNC(=O)c2ccccc2Cl)C1` (centres unmarked), the “hERG current change (%, negative = inhibition) at 1uM” value rises from 12.5% to 17.2%.

Going from `COC(=O)C1=C(C)OC(N)=C(C#N)C1c1cc(C)sc1C` (centres unmarked) to `Cc1cc(C(=O)O)c(=O)[nH]c1C`, the “hERG current change (%, negative = inhibition) at 1uM” value rises from 6.96% to 15%.

First: CCOc1ncccc1C(=O)N1CCN(c2cc(Cl)ccc2C)CC1
Second: COc1ccccc1NS(=O)(=O)c1ccc(C(=O)N2CCN(c3ccccc3O)CC2)cc1
The “hERG current change (%, negative = inhibition) at 1uM” value of the first is lower: 5.84% for the first, 7.03% for the second.

Compared with `COc1cccc(N=Nc2ccc(O)c3ncccc23)c1`, `COc1cccc(NC(=O)CSc2nc3ccsc3c(=O)n2-c2ccc(C(=O)O)cc2)c1` is lower in “hERG current change (%, negative = inhibition) at 1uM” value: 15.4% for the first, 3.12% for the second.

Compared with `CCCCn1c(N)c(N(CC)C(=O)c2ccc([N+](=O)[O-])c(C)c2)c(=O)[nH]c1=O`, `COCCn1c(N)c(C(=O)c2cccc(S(=O)(=O)N3CCCCCC3)c2)c(=O)[nH]c1=O` is lower in “hERG current change (%, negative = inhibition) at 1uM” value: 12.1% for the first, 0.77% for the second.

First: CC(C)CNC(=S)NC(=O)c1ccc(Cl)cc1
Second: O=S(=O)(c1ccc(Cl)cc1)n1cccn1
The “hERG current change (%, negative = inhibition) at 1uM” value of the first is higher: 9.84% for the first, 5.09% for the second.

Going from `CCN(CC)c1ccc(CN(C(=O)c2cccs2)C2CCS(=O)(=O)C2)cc1` (centres unmarked) to `CC1CCN(c2ccc(NC(=O)Cn3c(=O)oc4ccccc43)cc2)CC1`, the “hERG current change (%, negative = inhibition) at 1uM” value rises from 8.41% to 10.8%.

Compared with `CC(=O)OC1CC(c2cc(C(C)(C)C)c(O)c(C(C)(C)C)c2)=NO1` (centres unmarked), `CC(=O)C1=C(O)C(=O)N(Cc2cccnc2)C1c1ccc(Cl)cc1Cl` (centres unmarked) is higher in “hERG current change (%, negative = inhibition) at 1uM” value: 7.32% for the first, 17.1% for the second.

Compared with `COc1ccc(-c2cc(=Nc3c(C)n(C)n(-c4ccccc4)c3=O)c3ccccc3o2)cc1`, `Cc1c(N=Cc2c(O)n(Cc3ccco3)c(=O)c3ccccc23)c(=O)n(-c2ccccc2)n1C` is higher in “hERG current change (%, negative = inhibition) at 1uM” value: -3.81% for the first, 7.99% for the second.

First: COC(=O)c1ccc(C(NC(=O)c2cccnc2)NC(=O)c2cccnc2)cc1
Second: COc1ccc(NC(=O)c2cccc(N3C(=O)C4C5C=CC(C6CC56)C4C3=O)c2)cc1 (centres unmarked)
The “hERG current change (%, negative = inhibition) at 1uM” value of the first is higher: 13.5% for the first, 9.09% for the second.

First: Cc1cc(C)c(C(=O)C[n+]2cccc(C(N)=O)c2)c(C)c1.[Br-]
Second: Cc1c(CCOC(=O)c2cc([N+](=O)[O-])cc([N+](=O)[O-])c2)sc[n+]1CC(=O)c1ccc(Br)cc1.[Br-]
The “hERG current change (%, negative = inhibition) at 1uM” value of the first is higher: 4.48% for the first, -6.7% for the second.

Compared with `Cc1c(CCC(=O)N[C@@H](C)C(=O)O)c(=O)oc2cc3oc4c(c3cc12)CCCC4`, `CCn1c(=O)n(CC)c2cc(NC(=O)CSc3ccc([N+](=O)[O-])cn3)ccc21` is lower in “hERG current change (%, negative = inhibition) at 1uM” value: 10.5% for the first, 5.32% for the second.

Compared with `O=c1nc(N2CCOCC2)nc2n1CCO2`, `O=C(N=C1SC2CS(=O)(=O)CC2N1c1c(Cl)cccc1Cl)C1CC1` (centres unmarked) is higher in “hERG current change (%, negative = inhibition) at 1uM” value: 5.07% for the first, 10.2% for the second.

In the case of `CCOc1ccc(NCC2CCOC(C)(C)C2)cc1` (centres unmarked), the “hERG current change (%, negative = inhibition) at 1uM” value is reported as 9.8%.
